Results as given in the supplement of paper PMC12217912.
Some of the results follow. Sequences were assembled here from the parent chain. Inactive controls read about 0.05.

B1: TEV protease; numbered along this chain (parent)
chain: MGESLFKGPRDYNPISSSICHLTNESDGHTTSLYGIGFGPFIITNKHLFRRNNGTLVVQSLHGVFKVKDTTTLQQHLVDGRDMIIIRMPKDFPPFPQKLKFREPQREERICLVTTNFQTKSMSSMVSDTSCTFPSGDGIFWKHWIQTKDGQCGSPLVSTRDGFIVGIHSASNFTNTNNYFTSVPKNFMELLTNQEAQQWVSGWRLNADSVLWGGHKVFMVKPEEPFQPVKEATQL

Variants of: B1
Test: raw area under fraction-flipped curve 0-4 h after induction (AUC4h, not background-subtracted), DNA-recorder readout of cleavage of the substrate (dimensionless); higher = more cleavage of the substrate by the protease variant
Details: temperature: 34 °C; time window: 0-4 h after rhamnose induction
Procedure: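 In vivo DNA recorder in E. coli TOP10(DE3) ΔrhaA at 34 °C. Each TEVp single-site mutant (parent TEVp 0) is paired with a single-site variant of the 7-mer TEVs (canonical ENLYFQ|S). The substrate sits between flexible linkers in a Bxb1-sfGFP-TEVs-SsrA fusion, so cleavage stabilises Bxb1 and speeds flipping of a recombination array, read by NGS. The value is the raw area under the fraction-flipped curve over 0-4 h after rhamnose induction (AUC4h), with ≥20 reads per time point. It is not background-subtracted; inactive controls average about 0.047.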
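Also: Bxb1 expression induced with 0.2% (w/v) L-rhamnose at OD600 near 0.5, cultures sampled hourly, flipped fraction per protease–substrate barcode pair counted by paired-end Illumina sequencing.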

Variant | area with substrate ENLAFQS | area with substrate ENLCFQS | area with substrate ENLEFQS | area with substrate ENLFFQS | area with substrate ENLGFQS | area with substrate ENLHFQS | area with substrate ENLKFQS | area with substrate ENLNFQS | area with substrate ENLPFQS | area with substrate ENLQFQS | area with substrate ENLRFQS | area with substrate ENLSFQS | area with substrate ENLTFQS | area with substrate ENLVFQS | area with substrate ENLWFQS | area with substrate ENLIFQS | area with substrate ENLMFQS | area with substrate ENLDFQS | area with substrate ENLLFQS
Y179T | 0.0569 | 0.0626 | 0.0701 | 0.0846 | 0.0616 | 0.0691 | 0.0395 | 0.0618 | – | – | – | – | – | – | – | – | – | – | –
Y179L | 0.0777 | – | 0.0547 | – | – | – | – | 0.0648 | 0.0645 | 0.0482 | 0.0658 | 0.0763 | 0.0863 | 0.0652 | 0.0647 | – | – | – | –
L190W | 0.0648 | 0.0575 | 0.0783 | 0.0778 | – | 0.079 | 0.0688 | 0.0647 | 0.0585 | 0.0362 | 0.0607 | 0.0488 | – | – | – | 0.0828 | 0.0653 | – | –
D149K | 0.0592 | 0.063 | 0.0718 | – | 0.0764 | 0.0644 | 0.0545 | 0.0808 | 0.0474 | 0.0922 | 0.0669 | – | – | – | – | – | – | 0.0622 | –
D149N | 0.0633 | – | 0.073 | 0.111 | – | 0.0539 | 0.0618 | 0.0634 | 0.0607 | – | 0.0674 | 0.0552 | 0.0557 | – | – | 0.0875 | 0.0753 | – | –
V165S | 0.0416 | 0.0565 | 0.0484 | 0.0322 | 0.0635 | – | 0.0538 | 0.0638 | 0.031 | 0.0399 | – | 0.0575 | – | 0.0697 | – | – | – | 0.0571 | –
V165F | 0.0504 | – | 0.0424 | – | – | 0.0524 | 0.0603 | – | 0.0674 | – | – | – | – | – | – | – | 0.0499 | 0.0599 | –
F140E | 0.0694 | 0.0768 | 0.0799 | 0.069 | 0.0736 | 0.06 | 0.0665 | 0.0701 | 0.0538 | 0.0432 | 0.0913 | 0.0579 | – | – | 0.0606 | 0.0913 | 0.0976 | 0.0232 | –
V183F | 0.0691 | 0.0526 | 0.0599 | 0.0756 | – | 0.0752 | – | 0.0755 | 0.0705 | – | 0.0802 | 0.0651 | 0.07 | 0.082 | 0.0577 | – | – | 0.0709 | –
S127H | 0.0671 | 0.0745 | 0.0771 | 0.112 | 0.0794 | 0.0765 | 0.0765 | 0.0697 | 0.0923 | 0.0111 | 0.0754 | 0.078 | 0.0655 | 0.109 | 0.0645 | 0.113 | – | 0.0663 | 0.0702
S127A | 0.0682 | 0.0741 | – | 0.0851 | 0.0458 | 0.0664 | 0.0844 | 0.0682 | 0.0595 | 0.0909 | 0.067 | 0.0682 | 0.0735 | – | 0.0758 | 0.0745 | 0.0744 | 0.0483 | –
S130C | 0.0772 | – | – | 0.101 | – | – | – | 0.0709 | 0.0709 | 0.078 | – | 0.0495 | – | – | – | – | – | 0.0669 | –
S130Q | 0.046 | – | – | 0.0723 | 0.0729 | – | 0.0979 | 0.0478 | 0.0633 | – | – | – | – | 0.119 | 0.0601 | – | – | 0.07 | –
S130N | 0.0721 | – | – | 0.0905 | 0.0733 | 0.0559 | 0.0879 | 0.0732 | – | 0.0569 | – | – | – | – | 0.0671 | – | – | 0.0536 | –
Q151P | 0.0627 | – | 0.0632 | 0.056 | 0.0669 | – | 0.0535 | – | 0.064 | 0.0427 | 0.0495 | 0.059 | 0.0742 | – | – | 0.0631 | – | 0.0436 | –
